Source: the supplement of paper PMC11417369
The other results are listed elsewhere or left out.

tested on: PF3D7_0420300 AP2 domain 1 (GST-tagged); experiment: gcPBM binding intensity (ln(normalized median fluorescence intensity)); higher = stronger DNA binding
Outline: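 GST-tagged P. falciparum DNA-binding domains, expressed in E. coli (about 25 μg on average), were applied for 1 h to an Agilent 4 × 180k array of primer-extended double-stranded 36-bp intergenic genomic probes plus negative controls. The binding buffer was 1× PBS with 1% milk, 0.2 mg/ml BSA, 0.5% salmon testes DNA and 0.03% Triton X-100. Bound protein was detected with Alexa488 anti-GST antibody and scanned at 488 nm. Binding intensity is the highest Masliner-normalised natural-log median intensity across replicate spots of either probe orientation.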

Going from “TAGAAAGAATATAATTGTACAAATGTTGATAGATAA [XGTACX_site7259]” to “ATTTTTCTTTTATTAACACACATATAAATAAATACA [CACACA_site2876]”, the “gcPBM binding intensity (ln)” value falls from 9.28 to 9.22.

First: ATATATATATATATATATATATATGTTTGATTTTTT [XGTACX_negctrl_site98]
Second: ATAATAATAAAAATTATACATAAGTATATGCACATA [XGTACX_negctrl_site583]
The “gcPBM binding intensity (ln)” value of the first is lower: 8.88 for the first, 9.17 for the second.

First: TATAAACCATAATTAACACACAAAATAAGTTACATA [CACACA_site3227]
Second: ACATATGGTATTTAAACACACAAAAAAGAAAGAAAA [CACACA_site991]
The “gcPBM binding intensity (ln)” value of the first is higher: 9.76 for the first, 9.55 for the second.

Compared with “TTTTGCTTTTTTTTTCTTTTTTGTTTTATATATATT [CACACA_negctrl_site103]”, “CCACATTAAAAAAAAACACACATATATTATATATAT [CACACA_site1155]” is lower in “gcPBM binding intensity (ln)” value: 9.74 for the first, 9.43 for the second.

“AATACATGAATATGTAGTACAGAAAAAAAAAATATA [XGTACX_site1945]” and “GTTACAGAGAATGTTGTGCACATATCAATAATATAT [GTGCAC_site9671]” are the same in “gcPBM binding intensity (ln)” value: 9.32 for the first, 9.32 for the second.

Compared with “AAAATGACATAATGGGGAATAGACATATACATAAAT [CACACA_negctrl_site1669]”, “TATATATATATATATATTTTAAATGATATAAATGGT [TGCATGCA_negctrl_site152]” is lower in “gcPBM binding intensity (ln)” value: 9.63 for the first, 9.2 for the second.

First: AATTAATTAAATTAATGTACACATATATTTGTATTC [XGTACX_site2341]
Second: AGAGAAAGAAGGGAGAAAAAATAAAATAAAATAAAA [GTGCAC_negctrl_site299]
The “gcPBM binding intensity (ln)” value of the first is higher: 9.24 for the first, 9.07 for the second.

Compared with “AATAAAAAAAAACTCATGCACACAATATTATGAAAA [CACACA_site664]”, “CATATATAGATATATACACACATACATACATACATA [CACACA_site7748]” is lower in “gcPBM binding intensity (ln)” value: 9.64 for the first, 9.59 for the second.

Compared with “TGCATATGCATTATTTGTACATATGTAGATAATTAT [XGTACX_site6930]”, “AATAAAATAAATATATGTACATATATATAACCATTA [XGTACX_site5549]” is higher in “gcPBM binding intensity (ln)” value: 9.14 for the first, 9.39 for the second.

Compared with “AAAAATTACAAATACAAACACACAAATGTTTTTCAT [CACACA_site3551]”, “TTGACATATAAGATATGTACTAATACACACACATAT [XGTACX_site1904]” is higher in “gcPBM binding intensity (ln)” value: 9.45 for the first, 9.75 for the second.

Compared with “AAATAATAAAACAACACACAAATAGTTAAAATAGAA [CACACA_site5007]”, “ACATTCTATATATACACACATACATAATAAAGAAAG [CACACA_site2771]” is lower in “gcPBM binding intensity (ln)” value: 9.88 for the first, 9.76 for the second.

Going from “TTTTAATGATATATGAGTACACATTGTTTTTTATAA [XGTACX_site1072]” to “ATATAATGATGGAAAAGAAAAGAAATAAAAAAAAAA [CACACA_negctrl_site1170]”, the “gcPBM binding intensity (ln)” value rises from 9.05 to 9.21.

Going from “TATTTTTATTGGTACTGTACCTATTTAGAAATACAT [XGTACX_site6663]” to “ATGATTTCATTTGAGAGTACGTAAAAATAATACGTA [XGTACX_site4958]”, the “gcPBM binding intensity (ln)” value falls from 9.16 to 8.92.

Compared with “TATTTATAAAAAAATACATGCATTTTTTTTTTTTTT [TGCATGCA_site65]”, “TGTTAATTCTTAAGAATTTCCATAATTTCTTCTTTT [CACACA_negctrl_site1065]” is higher in “gcPBM binding intensity (ln)” value: 8.74 for the first, 9.11 for the second.

First: TAATACAAAAACAATGTTCTTTCAAACATAAACATA [CACACA_negctrl_site1628]
Second: TTTGCCATATGACACACACACATGTAAACCCCCTTT [CACACA_site6873]
The “gcPBM binding intensity (ln)” value of the first is lower: 9.19 for the first, 9.95 for the second.

Going from “TTTTTTTTTTTGAAATGTACATTCCAAAAACTGATA [XGTACX_site1495]” to “TATATATATATATATTTTTTTTTTTTATGCACATGG [CACACA_negctrl_site1573]”, the “gcPBM binding intensity (ln)” value rises from 8.97 to 9.

Going from “CTTTTGAACAGTTCATGTACTCAATTTTTTAATAGT [XGTACX_site6498]” to “TAATACCTATGGTATAGTACGTATTATTTTATAGAG [XGTACX_site2078]”, the “gcPBM binding intensity (ln)” value falls from 9.11 to 9.03.

First: TCCCTTCATCTTTTATGTACTAAAAAATTGAATAAT [XGTACX_site2172]
Second: TAATACGAATGAGGCACACACCTAGTATACATGCTT [CACACA_site6438]
The “gcPBM binding intensity (ln)” value of the first is lower: 9.09 for the first, 9.45 for the second.

Compared with “AATTAAAATTTTTGAAGTACACTCAAAATAAGTTAT [XGTACX_site4490]”, “AAAATAAAAAAAAACACACACATACAAGCATATATA [CACACA_site1585]” is higher in “gcPBM binding intensity (ln)” value: 9.02 for the first, 10.2 for the second.

First: AATTAATGGCTAAAGGTGCACAATATATATATTACA
Second: AAAAAAAAATTTAAGGGTACATACAAATATATATAT [XGTACX_site5078]
The “gcPBM binding intensity (ln)” value of the first is higher: 9.46 for the first, 9.37 for the second.

Compared with “TTATATTCTAGAGACACATGCGATTTTTTATTTTAT [TGCATGCA_site649]”, “TGGAATAATCCGCGTACACACATATATATATTAAGA [CACACA_site4253]” is higher in “gcPBM binding intensity (ln)” value: 9.42 for the first, 9.49 for the second.

First: AATAAAAATAGGAATACGCACACGATGATTAATTTA [CACACA_site1836]
Second: AATTAACCCTAATTTTGTACATATTCCTTTTCTCAT [XGTACX_site46]
The “gcPBM binding intensity (ln)” value of the first is lower: 9.39 for the first, 9.61 for the second.

Compared with “GTTACTATGATTAATGCATGCAAATACCAAAAAAAA [TGCATGCA_site590]”, “TATACCACACGATATACACACTTGTAGACATCTTTT [CACACA_site6232]” is higher in “gcPBM binding intensity (ln)” value: 9.07 for the first, 9.51 for the second.

Compared with “TTGTCTGACTAATTTTTTTCTGTTTGTACGTTCTTA [GTGCAC_negctrl_site602]”, “TTTTTATACAACTTATAATACATCTGAAAATATAAA [XGTACX_negctrl_site36]” is lower in “gcPBM binding intensity (ln)” value: 9.42 for the first, 8.94 for the second.

First: TATCACATATTATGATGTACAAGGTTTCTGACTAAT [XGTACX_site2763]
Second: ACAAAATAAATATGAACACACACATTTATGCCTTTA [CACACA_site8346]
The “gcPBM binding intensity (ln)” value of the first is lower: 9.12 for the first, 9.77 for the second.

First: ATAATTATACATATTACACACTCTCTTGATCTTTTT [CACACA_site3853]
Second: CATATATAAAAAAACACACACATATTTATATTTATA [CACACA_site6682]
The “gcPBM binding intensity (ln)” value of the first is lower: 9.55 for the first, 9.81 for the second.

Going from “CATATTTCTTACATTTGTACTTAATAAAATTAATCA [XGTACX_site7224]” to “AAAAAAATTTATAAATATTTTATTAATATATTTACC [GTGCAC_negctrl_site690]”, the “gcPBM binding intensity (ln)” value falls from 9.11 to 8.86.

Going from “ACACAAAACAAAAAGGTGCTGTATAAATGGGTGTAT [GTGCAC_site9905]” to “AACACCCATGGACACACACACATATATATATATATA [CACACA_site5809]”, the “gcPBM binding intensity (ln)” value rises from 9.89 to 9.92.

First: TTTTTATAAGCATAAAGTACAAATATTTTTTAGTTG [XGTACX_site4140]
Second: TAAATCCGTTTGATGGGTACATACATACATACATAT [XGTACX_site8889]
The “gcPBM binding intensity (ln)” value of the first is lower: 8.86 for the first, 9.27 for the second.

“ATTTATTTTAGTAAAGCACACGTGTAAAATATATCT [CACACA_site4820]” and “ACAATAAAATATGGCACACATATATATATATATTTA [CACACA_site3]” are the same in “gcPBM binding intensity (ln)” value: 9.35 for the first, 9.35 for the second.

Going from “TCTTTTTTGAACTAGCGTACATGAAAATATTTATAG [XGTACX_site7359]” to “TTATTACATATAAAGGAAAATAGCATCTAGATTAAA [XGTACX_negctrl_site435]”, the “gcPBM binding intensity (ln)” value rises from 9 to 9.1.

Compared with “AAAAAAAAAAAAAAAAAATACATATACATTTGTGCA [CACACA_negctrl_site1431]”, “TTTTTATTTATATATAAGGAAAATGCGGTATATATT [CACACA_negctrl_site1770]” is higher in “gcPBM binding intensity (ln)” value: 9.12 for the first, 9.24 for the second.

Going from “AATTAAATATTATAAACACACATATAGATTATTTTT [CACACA_site6538]” to “ATTTCTTATTAAATTACACACAAAGTAAATAAATCT [CACACA_site3924]”, the “gcPBM binding intensity (ln)” value falls from 9.38 to 9.27.

Compared with “ATTTTAAATATGGAATGTACTTAAAAAAAATTTCAT [XGTACX_site5058]”, “TTGTTTTGGATTATCACACATATAATATATACTCAT [CACACA_site4780]” is higher in “gcPBM binding intensity (ln)” value: 8.94 for the first, 9.46 for the second.

Compared with “TTTTCCTTTTTTTTTACATGCAGATATAGAAAGGTA [TGCATGCA_site106]”, “TATAATAATATGGATTGTACATATATATTTAATTAA [XGTACX_site4327]” is higher in “gcPBM binding intensity (ln)” value: 8.82 for the first, 9.08 for the second.

First: AAATACATAACTTAAAATTTGTTCATATCTATACAT [TGCATGCA_negctrl_site249]
Second: GTAATTTTTTTCTATACACACATATCTATAATATAT [CACACA_site7284]
The “gcPBM binding intensity (ln)” value of the first is lower: 9.19 for the first, 9.75 for the second.

Compared with “TACTTATAATTTCAATGTACATATATATAATATCAT [XGTACX_site2424]”, “TATGTATAACTCAATGCATGCGAAGGACTATTATTT [TGCATGCA_site222]” is higher in “gcPBM binding intensity (ln)” value: 9.17 for the first, 9.34 for the second.

Compared with AATATTGTTCACAAGGTGCTTTTTATTCATACTAAT, “ACCTCACAAATGAATACACACAAACATATAGATTTA [CACACA_site6862]” is higher in “gcPBM binding intensity (ln)” value: 9.32 for the first, 9.7 for the second.

Going from “ATATATAAAATTATATGTACATATATCTATTTATAA [XGTACX_site3713]” to “TTTAAAATTTCTTAATGTACGTAATAAAAAAAAAAA [XGTACX_site4037]”, the “gcPBM binding intensity (ln)” value falls from 9.04 to 8.94.

First: GATTAAAACTTTAACTGTACATAATAATTATCAATC [XGTACX_site5938]
Second: TATATGTATTTATATACACACATATTCTTTTTACAC [CACACA_site8320]
The “gcPBM binding intensity (ln)” value of the first is lower: 9.13 for the first, 9.47 for the second.

First: AATATTTTGAACAACAGTACTCTTTCTTTCTTTCTT [XGTACX_site7212]
Second: TCCTTTTCATCTTGTAGTACGGAAATGTAGCTCCAA [XGTACX_site8563]
The “gcPBM binding intensity (ln)” value of the first is higher: 9.23 for the first, 9.09 for the second.

Going from “TGTGTAAATATGTATACACACATATCTGATCAATAT [CACACA_site7507]” to “TATATCTACTTAAAAAGTACGTAAATTATAAGCTAT [XGTACX_site6420]”, the “gcPBM binding intensity (ln)” value falls from 9.45 to 8.97.

Going from “TATAAATATAGACACACACACACACCGAAGCGTAGC [CACACA_site6180]” to “TCGTCACTTTAATATTGTACATATATATATATATAT [XGTACX_site8046]”, the “gcPBM binding intensity (ln)” value falls from 10.1 to 9.41.

First: AAAATTAATAAATAAACACACATATTTATATTTATA [CACACA_site7266]
Second: ATATATATATGTGCCAGTACACATGTATACATTATA [XGTACX_site3899]
The “gcPBM binding intensity (ln)” value of the first is higher: 9.35 for the first, 9.29 for the second.
